About 450 (0.94%) of roughly 48,000 compounds were called active. About 19% were inconclusive and are not listed. Calls follow the shape of the dose curve; as a rule, active = well fitted inhibition curve with a large enough effect; inconclusive = small, poorly fitted or top-dose-only effect; inactive = no such curve, though single readings can be large or run the other way. Some of the results follow.
assay: Primary qHTS for Identification of Small Molecule Inhibitors of Huntingtin Promoter Activity; conditions: HEK293 HTT promoter firefly luciferase reporter (activity 0% = vehicle and -100% = no light), 24 h; series mostly up to 57.5 µM; activity change, negative = inhibition: at the top concentration; also: nearly all actives have a fitted effect of over 50% in size
In short: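 HEK293 Fluc reporter, 2,500 cells/well, 24 h pre-culture; cpds up to 57.5 uM final, 24 h 37 degrees C; Dual-Glo, 10 min RT; normalized vehicle = 0%, zero RLU = -100%.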

Activity change, negative = inhibition, inactive:
CCOc1ccc(N2CC(NC(=O)c3ccco3)CC2=O)cc1 (stereo not drawn) 6.17%
Cc1cc(C)c(NC(=O)Cn2c(=O)c3cccn3c3ccccc32)c(C)c1 -3.87%
CCCCNC(=O)c1ccc2c(c1)N(Cc1ccc(F)cc1)C(=O)c1ccccc1S2=O (stereo not drawn) -27.2%
CCSc1ncc(Cl)c(C(=O)N2CCN(c3ccccc3OC)CC2)n1 -45.4%
Cc1cccc(C(=O)OCc2cc(=O)n3ccsc3n2)c1 7.62%
COc1ccc(Cn2ccc3nc(C)c(C(=O)Nc4ccc(OC)cc4)cc3c2=O)cc1 -28.8%
COc1ccc(CNC(=O)C2CCN(S(=O)(=O)c3c(C)noc3/C=C/c3ccccc3F)CC2)cc1 -22.8%
CC(=O)Nc1nc2n(n1)C(c1ccc(F)cc1)C=C(c1ccc(Cl)cc1)N2 (stereo not drawn) -16.8%
COc1ccc(CCNC(=O)CCn2c(=O)c3ccccc3n(Cc3ccccc3F)c2=O)cc1OC -15.7%
O=c1cc(-c2ccc(O)cc2)oc2cc(O)cc(O)c12 17.2%
O=C(O)Cc1csc(-c2ccc(Cl)cc2)n1 -7.27%
CC(=O)c1cccc(NC(=O)C2CCN(S(=O)(=O)c3ccc4c(c3)CCCN4C(C)=O)CC2)c1 -8.02%
Cc1ccc(-c2nc(C)c(CCNC(=O)c3cccs3)s2)cc1 -17.4%
Cc1ccc(CN2CCCn3nc(C(=O)NCCc4ccccc4C)cc3C2=O)cc1 -32.9%
COc1cc(C(=O)Nc2ccccc2-c2nc(-c3ccccc3)no2)cc(OC)c1OC 2.64%
CCN(CC)c1nc2ccccc2nc1C(=O)Nc1ccc(C(C)=O)cc1 -29.1%
Cc1ccc(C)c(NC(=O)CN(C)S(=O)(=O)c2cccc3nsnc23)c1 -13.4%
Cc1ccc(-n2nc(C(=O)Nc3ccc(F)cc3F)c3c4ccccc4n(C)c3c2=O)cc1 -24.7%
Cc1cccc(N(C)c2nc3ccc(C(=O)c4ccccc4)cc3n3c(C)nnc23)c1 -29.2%
CC(C)(C)C1CCc2c(sc(NC(=O)c3cc4ccccc4c(=O)o3)c2C(N)=O)C1 (stereo not drawn) 1.39%
Cc1ccc(C)c(NC(=O)Cn2c(=O)n(CCC(C)C)c(=O)c3cccnc32)c1 -14.7%
COc1ccccc1NC(=O)Cn1cc(S(=O)(=O)Cc2ccccc2)c2ccccc21 -25.6%
CCCCCOc1ccc(/C=C/C(=O)Nc2sc(C)c(C)c2C(=O)OCC)cc1OC 1.82%
CCN(CC)CCNC(=O)Cn1ncc2c3ccccc3n(Cc3ccc(Cl)cc3)c2c1=O -3.63%
Cc1ccc(-c2csc(-c3nc(-c4ccc(Br)s4)cs3)n2)cc1 -3.79%
COc1ccc(NC(=O)Cn2nnc(C(=O)NCc3cccs3)c2N)cc1 -16.5%
Cc1ccc(NC(=O)CSc2nc(=O)n(Cc3cccnc3)c3c2CCC3)cc1F -19.6%
CCc1cccc(C)c1NC(=O)c1cc(S(=O)(=O)N(Cc2ccc(C(=O)OC)cc2)Cc2ccc(OC)c(OC)c2)ccc1F -18.3%
Cc1ccccc1C(=O)N1CC/C(=N\OS(=O)(=O)O)c2ccc(Cl)cc21 -2.74%
COc1ccc(NC(=O)CN2C(=O)CC(c3ccc(C)c(C)c3)=Nc3ccccc32)cc1OC 28.3%
CCC(CC)C(=O)Nc1ccc2nc(SCC(=O)N3CCCC3)sc2c1 -15.8%
CC(C)CCNC(=O)CN1C(=O)CSc2ccc(S(=O)(=O)N3CCC(C)CC3)cc21 -8.38%
COc1ccc(NC(=O)[C@H]2O[C@@H]3OC(C)(C)O[C@@H]3[C@H]3OC(C)(C)O[C@H]32)c(OC)c1 24.3%
CCOC(=O)C1CCCN(c2nc3c(S(=O)(=O)c4ccc(CC)cc4)nnn3c3ccsc23)C1 (stereo not drawn) -1.61%
Cc1ccc2c(c1)c1c(c(=O)n(-c3cccc(Cl)c3)c(=O)n1CC(=O)NCC1CCCO1)n2C (stereo not drawn) -9.58%
Cn1c(=O)[nH]c(=O)c2c1nc(N1CCOCC1)n2Cc1ccccc1 -5.22%
CCc1cccc(NC(=O)CCc2nc3cccnc3n2Cc2ccc(OC)cc2)c1 -25.5%
C=C1C(=CC=C2CCC[C@]3(C)[C@@H]([C@H](C)C=C[C@H](C)C(C)C)CC[C@@H]23)C[C@@H](O)C[C@@H]1O 19.7%
CCOC(=O)Cc1ccc(NC(=O)Nc2c[nH]c(=O)[nH]c2=O)cc1 -7.64%
Cc1ccccc1OCC(=O)Nc1ccc(-c2nc3ccccc3o2)cc1 26.7%
COc1ccc(CN2C(=O)C(NC(=O)c3cccc(C)c3)(C(F)(F)F)N=C2c2ccccc2)cc1 (stereo not drawn) -20.7%
Cn1c2ccccc2c2cnn(CC(=O)NCCCN3CCCCC3)c(=O)c21 7.02%
CCc1ccccc1NC(=O)CSc1nncn2c1cc1oc(C)cc12 -25.7%
CCOC(=O)C(CC)n1nnc2sc(-c3ccccc3)cc2c1=O (stereo not drawn) 16.5%
O=C(NCCS(=O)(=O)N1CCN(c2ccc(F)cc2)CC1)C(c1ccccc1)c1ccccc1 -24.8%
Cc1ccc2oc(=O)c3cnn(CC(=O)N4CCN(c5ccc(F)cc5)CC4)c3c2c1 -1.81%
CC(C)Oc1ccccc1-c1nc(SCC(=O)c2ccc(F)cc2)n[nH]1 -37.9%
Cc1ccc(CNC(=O)CSc2nc3c(sc4ccccc43)c(=O)n2CCCOC(C)C)cc1 -15%
Cc1ccc(-n2c(=O)c3sc4ccccc4c3n(CC(=O)NC3CCCC3)c2=O)cc1C -21.2%
COc1ccc(OC)c(CCNC(=O)c2cc3c(s2)-c2c(C)cccc2OC3)c1 -27.3%
CCOc1ccc(NC(=O)C(Cc2ccccc2)NS(=O)(=O)c2ccc3c(c2)oc(=O)n3C)cc1 (stereo not drawn) -32%
Cc1c(Cl)cccc1-c1ccc(CNCCSc2nnnn2-c2ccccc2)o1 13.5%
CCN(CC)S(=O)(=O)c1ccc(NC(=O)CN(c2ccccc2)S(=O)(=O)N(C)C)cc1 -11.9%
CCOc1ccc(CNC(=O)c2ccc3c(c2)c(C)c(C)n3Cc2ccccc2)cc1OC 10.2%
Cc1ccc(-n2ncc(C(=O)N3CCN(c4cc(Cl)ccc4C)CC3)c2C2CCN(C(=O)OC(C)(C)C)CC2)cc1 0.305%
COc1ccc(CCNC(=O)c2ccc3c(c2)N(Cc2ccccc2)C(=O)c2ccccc2S3=O)cc1OC (stereo not drawn) 13.5%
COC(=O)c1ccc(Cl)cc1NC(=O)Nc1nnc(N2CCCC2)s1 7.92%
COc1ccc(CNc2ncnc3c2nc2n3CCCC2)cc1 -14.4%
COC(=O)CSc1ncc2c(n1)-c1ccccc1N(Cc1ccc(Cl)cc1)S2(=O)=O -12.7%
COc1ccc(CCn2c3c(c(=O)[nH]c2=O)C(NC(=O)c2ccc(Cl)cc2)(C(F)(F)F)C(=O)N3)cc1OC (stereo not drawn) -1.51%
Cc1cccc(CNC(=O)Cn2c(-c3cccs3)cc3ccccc32)c1 -29.9%
Cc1cccc(OCC(=O)Nc2ccccc2C(=O)OCc2cc(=O)n3ccsc3n2)c1 -5.72%
Cn1ncc2c(Nc3cc(C(F)(F)F)ccc3Cl)ncnc21 -10.3%
CC(NC(=O)c1ccc2c(c1)N(Cc1ccc(Cl)cc1)C(=O)CS2)c1ccccc1 (stereo not drawn) -17.7%
O=C(NNC(=O)c1ccc(CNS(=O)(=O)c2ccc(F)c(Cl)c2)cc1)c1ccccc1 30.5%
CCc1ccc(-n2nnc(-c3nc(-c4cccs4)no3)c2N)cc1 83.2%
CC1CCN(C(=O)CSc2n[nH]c(-c3ccc(F)cc3)n2)CC1 -20.8%
COc1ccc2c(c1)c1c(c(=O)n(-c3ccccc3C)c(=O)n1Cc1cccc(C(F)(F)F)c1)n2C -14.1%
CC(C)OC(=O)c1ccc(Cn2nnc3sc4c(c3c2=O)CCCC4)cc1 -15.1%
O=C(Cn1ccnc1[N+](=O)[O-])NCCO 11.9%
CCCN(c1c(C)n(C)n(-c2ccccc2)c1=O)S(=O)(=O)c1ccc(C)cc1 -9.57%
CC(C)(C)C(=O)Nc1ccc(-c2nc3ccc(NC(=O)C(C)(C)C)cc3[nH]2)cc1 50.3%
Cc1ccc(S(=O)(=O)NCC2CCC(C(=O)NCCc3ccccc3)CC2)cc1 (stereo not drawn) -4.44%
CCOC(=O)c1cnc2cc(C(F)(F)F)ccc2c1Nc1ccc(F)cc1F -21.9% [at 11.5 µM]
CC(=O)Nc1ccc(S(=O)(=O)NC2(C(F)(F)F)C(=O)Nc3c2c(=O)[nH]c(=O)n3-c2cccc(Cl)c2)cc1 (stereo not drawn) -17.8% [at 11.5 µM]
CCC(=O)N1CCc2cc(CNS(=O)(=O)c3cc(OC)ccc3OC)ccc21 -14.4%
O=C(c1ccc(F)cc1)c1cn(Cc2ccccc2F)c2cc3c(cc2c1=O)OCCO3 -5.83%
Oc1ccc(Cl)cc1C1=Nc2ccccc2N=C(c2ccccc2)C1 -0.9%
Cc1ccc(CSc2nc3cccnc3n2Cc2ccc(C(=O)NCc3ccco3)cc2)cc1 -11.7%
Cc1ccc(-c2nc3c(c(SCc4ccc(Br)cc4)n2)Cc2c(CO)cnc(C)c2O3)cc1 23.9%
CC(=O)OCC(COC(C)=O)OC(C)=O 7.37%
O=C(CSc1nc2c([nH]c3ccccc32)c(=O)n1-c1ccc(Cl)cc1)N1CCc2ccccc21 3.66%
CSc1cccc(NC(=O)c2cnn(-c3ccc(F)cc3)c2-n2cccc2)c1 -15.6%
COc1ccc(CCNC(=O)CCc2c(C)c3cc4c(C)c(C)oc4cc3oc2=O)cc1OC 5.51%
O=C(Cn1ncn2c(cc3sccc32)c1=O)NCCc1ccccc1 4.55%
Cc1ccc2c(=O)cc(C(=O)Nc3ccc(S(=O)(=O)N(C)c4ccccc4)cc3)oc2c1C -24.5%
COc1ccc(-c2noc(CN(C)S(=O)(=O)c3c(C)cc(C)cc3C)n2)cc1OC -3.52%
CCC(C(=O)Nc1cccc(Cl)c1C)n1nc(C)c2sc3ccccc3c2c1=O (stereo not drawn) -2.19%
COc1ccc(C)cc1NC(=O)c1ccc(NS(=O)(=O)c2c(C)noc2C)cc1 -3.43%
CC(=O)N1c2ccccc2C(=O)C1N1CCN(c2ccccc2F)CC1 (stereo not drawn) -17.4%
CCOC(=O)c1ccc(NC2=CC(c3ccc(OCC)cc3)N(c3ccc(C(=O)OCC)cc3)C2=O)cc1 (stereo not drawn) -5.69%
CCOC(=O)c1cnc2cc(C(F)(F)F)ccc2c1Nc1cc(C)ccc1OC -13.1% [at 11.5 µM]
Cc1ccc(-c2nc(CCNC(=O)c3ccc(C)c(C)c3)cs2)cc1 -30.7%

Reference: PubChem BioAssay AID1508623 (National Center for Advancing Translational Sciences (NCATS), 2021)
